In all, about 50,000 compounds went through this assay and about 800 (1.6%) showed an effect of 50% or more. This is one part of the list.
Biological target: Bcl-2-like protein 10 (Homo sapiens) (UniProt Q9HD36)
Assay: Phenotype converters, Bcl-B/TR3 peptide binding displacement, primary biochemical FP (AID 1240);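 note: 0% = Bcl-B with tracer peptide and DMSO and 100% = tracer peptide lacking Bcl-B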
Settings: GST-Bcl-B / FITC-TR3 peptide fluorescence polarization; stronger effect = higher value; compound at 3.75 mg/L

UniProt Q9HD36, sequence (Q9HD36 whole entry, looked up): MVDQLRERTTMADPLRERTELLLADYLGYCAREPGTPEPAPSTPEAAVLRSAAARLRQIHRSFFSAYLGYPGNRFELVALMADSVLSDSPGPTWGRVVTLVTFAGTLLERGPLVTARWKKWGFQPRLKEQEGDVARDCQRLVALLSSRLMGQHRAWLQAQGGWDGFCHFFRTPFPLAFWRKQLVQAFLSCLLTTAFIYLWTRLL

Q: How did the displacement turn out when `COc1ccc(-c2nnc(NC(=O)c3ccccc3OC)s2)cc1OC` was run?
A: 25%

Q: For `CCN(CC)c1ccc(C(=O)Nc2nccs2)cc1`, which displacement is on record?
A: 8.3%

Q: Which displacement does the source give for `O=C1CC(SC(=NCCc2ccccc2)Nc2ccc(F)cc2)C(=O)N1c1ccc(F)cc1` (configuration not stated) here?
A: -7.4%

Q: `Cc1ccc(N2CCN(C(=S)c3ccc(-c4cccc([N+](=O)[O-])c4)o3)CC2)cc1` was tested. Which displacement did it give?
A: -6.1%

Q: Which displacement does the source give for `COc1ccc(-c2nnc(NC(=O)c3ccc(Cl)cc3)s2)cc1` here?
A: -11%

Q: For `CCOC(=O)CSc1nc2ccc(N)cc2s1`, which displacement is on record?
A: -2.6%

Q: For `CC(NC(=S)Nc1ccccc1)C1COc2ccccc2O1` (configuration not stated), which displacement is on record?
A: -7.3%

Q: For `O=C(NC(=S)Nc1ccc([N+](=O)[O-])cc1O)c1ccc(F)cc1`, which displacement is on record?
A: -0.7%

Q: For `CCOC(=O)c1c(NC(=O)CN2CCCCC2)sc2c1CC(C)(C)OC2`, which displacement is on record?
A: -6.1%

Q: With `COC(=O)c1cc(NC(=O)c2ccc(I)cc2)cc(C(=O)OC)c1` as the compound, how does the displacement read?
A: 8.3%

Q: How did the displacement turn out when `C/C(=N\NS(=O)(=O)c1ccc(C)c([N+](=O)[O-])c1)c1ccc(N)cc1` was run?
A: -1.5%

Q: With `Cc1cc(NC(=O)Nc2cccc(Cl)c2)no1` as the compound, how does the displacement read?
A: -7.3%

Q: For `Cc1cccc(OCC(=O)NCC(C)C)c1`, which displacement is on record?
A: 14.3%

Q: `Nc1nnc(CCc2ccccc2)s1` was tested. Which displacement did it give?
A: -7.8%

Q: Which displacement does the source give for `CC(C)(C)N1C(=O)c2ccc(C(=O)c3ccc(C(=O)O)cc3)cc2C1=O` here?
A: 2.5%

Q: Which displacement does the source give for `CC(C)(CO)NC(=O)CC12CC3CC(CC(C3)C1)C2` here?
A: -14.1%

Q: `Cc1ccc(CNC(=O)C(=O)NCC(C)C)cc1` was tested. Which displacement did it give?
A: 14%

Q: With `O=[N+]([O-])c1cccnc1N1CCOCC1` as the compound, how does the displacement read?
A: -13.3%

Q: For `COc1ccc(C(CC(=O)c2ccc(O)cc2)S(=O)(=O)c2ccc(C)cc2)cc1` (configuration not stated), which displacement is on record?
A: 11%

Q: `COC(=O)CN(c1ccc(OC)c(Cl)c1)S(=O)(=O)c1ccccc1` was tested. Which displacement did it give?
A: 3.2%

Q: `O=C1CC(N2CCCCC2)C(=O)N1Cc1ccccc1` (configuration not stated) was tested. Which displacement did it give?
A: -9.6%

Q: How did the displacement turn out when `COc1ccc(NC(=O)CSc2nc3ccc(N4C(=O)c5ccccc5C4=O)cc3s2)cc1` was run?
A: 1.7%

Q: How did the displacement turn out when `COc1cccc(C=C2C(=O)NC(=S)NC2=O)c1OCC#N` was run?
A: 19.1%

Q: How did the displacement turn out when `C/C(=N\NC(=O)COc1ccc(Cl)cc1)c1ccc(Cl)s1` was run?
A: 1.3%

Q: For `Cc1cccnc1NC(=O)COc1ccc(Cl)cc1Cl`, which displacement is on record?
A: -10.1%

Q: Which displacement does the source give for `O=[N+]([O-])c1cccc(S(=O)(=O)Nc2ccccc2Br)c1` here?
A: -9.9%

Q: With `Cc1cccc(OCCOc2ccccc2/C=N/n2cnnc2)c1` as the compound, how does the displacement read?
A: -4.5%

Q: With `CC1=C(C(=O)OCc2ccccc2)C(c2c(F)cccc2Cl)CC(=O)N1` (configuration not stated) as the compound, how does the displacement read?
A: -2.6%

Q: How did the displacement turn out when `Cc1ccc2[nH]c(C)c(CN3CC(C)OC(C)C3)c(=O)c2c1` (configuration not stated) was run?
A: 14.9%

Q: How did the displacement turn out when `C=CCNC(=O)c1ccc(OCc2ccccc2)cc1` was run?
A: 10.2%

Q: How did the displacement turn out when `O=C(COc1ccccc1Cl)Nc1nc(-c2ccccc2)cs1` was run?
A: 0.8%

Q: How did the displacement turn out when `CCOC(=O)N/N=C/C=C/c1ccccc1` was run?
A: -8.6%

Q: For `O=C(NCc1ccco1)C1c2ccccc2Oc2ccccc21`, which displacement is on record?
A: 15.4%

Q: For `O=C(NC1CCCCCC1)c1ccccc1[N+](=O)[O-]`, which displacement is on record?
A: -10.7%

Q: For `CC(C1CC1)N(Cc1ccccc1)C(=O)Nc1cccc([N+](=O)[O-])c1` (configuration not stated), which displacement is on record?
A: 12.4%

Q: `CCOC(=O)c1c[nH]c2ccc([N+](=O)[O-])cc2c1=O` was tested. Which displacement did it give?
A: -6.8%

Q: For `CCOc1ccccc1N1CCN(C(=O)c2ccc([N+](=O)[O-])cc2)CC1`, which displacement is on record?
A: 11.1%

Q: Which displacement does the source give for `COc1ccc2c(c1)nc(C)n2Cc1ccccc1` here?
A: -5%

Q: `COc1ccc(-c2cc(C(F)(F)F)n3nc(C(N)=O)cc3n2)cc1` was tested. Which displacement did it give?
A: 7.8%

Q: With `O=C(Nc1ccc(Cl)cc1)Nc1ccc(Br)cc1` as the compound, how does the displacement read?
A: -1.6%

Q: For `C/C(=N\NC(=O)c1cc(C(C)(C)C)[nH]n1)c1ccc([N+](=O)[O-])cc1`, which displacement is on record?
A: -12.1%

Q: Which displacement does the source give for `Cc1ccc(NC2CC(C)N(C(=O)c3cccc(F)c3)c3cc(C)ccc32)cc1` (configuration not stated) here?
A: -18.7%

Q: How did the displacement turn out when `Cc1cccc(N2C(=O)/C(=C/c3ccc(O)c(Cl)c3)C(=O)NC2=S)c1C` was run?
A: 14.5%

Q: How did the displacement turn out when `O=[N+]([O-])c1cc(Cl)c(-c2ccco2)c(Cl)c1` was run?
A: -5.3%

Q: How did the displacement turn out when `CCCNC(=O)c1nn2c(C(F)(F)F)cc(-c3ccccc3)nc2c1Br` was run?
A: -1.5%

Q: With `O=C(O)CSc1nnc(-c2ccco2)n1-c1ccccc1` as the compound, how does the displacement read?
A: 0.4%

Q: Which displacement does the source give for `Cc1ccc(C(=O)Nc2ccc(NC(=O)c3ccccc3)cc2)cc1S(=O)(=O)N1CCCCC1` here?
A: 0.2%

Q: `CC1=C(C(=O)OCCc2ccccc2)C(c2cccc([N+](=O)[O-])c2)NC(=O)N1` (configuration not stated) was tested. Which displacement did it give?
A: 6.9%

Q: With `COc1ccccc1C(=O)NNC(=O)CCN1C(=O)/C(=C/c2ccc(C)cc2)SC1=S` as the compound, how does the displacement read?
A: -1.2%

Q: With `O=C(Nc1ccc(F)c([N+](=O)[O-])c1)C(c1ccccc1)c1ccccc1` as the compound, how does the displacement read?
A: 14.9%

Q: How did the displacement turn out when `Cc1nnc(Nc2ccc(C(=O)N3CCCCC3)cc2)c2ccccc12` was run?
A: 3.4%

Q: For `O=C(Nc1ccccc1C(=O)NCc1ccccc1)c1ccccc1Cl`, which displacement is on record?
A: 5.6%

Q: How did the displacement turn out when `CCOC(=O)c1ccc2c(c1)C1C=CCC1C(c1ccc([N+](=O)[O-])cc1)N2` (configuration not stated) was run?
A: 11.1%

Q: How did the displacement turn out when `COc1ccc(S(=O)(=O)N(C)Cc2ccccc2)cc1Br` was run?
A: -3.9%

Q: For `COC(=O)C1=C(C(=O)OC)SC(=C2C(=S)C(C)(C)N(C(=O)C(F)(F)F)c3ccc(C)cc32)S1`, which displacement is on record?
A: 11.6%

Q: For `C/C(=N\N=C(/N)SC1CC(=O)N(c2ccc(Cl)cc2)C1=O)c1ccc(Br)s1` (configuration not stated), which displacement is on record?
A: -17.6%

Q: How did the displacement turn out when `COC(=O)c1cc(-c2cccc(Br)c2)nc2ccccc12` was run?
A: -15.3%

Q: Which displacement does the source give for `Cc1ccccc1OCC(=O)N/N=C/c1ccc(O)cc1O` here?
A: -2.5%

Q: `O=C(CCCOc1ccccc1)Nc1ncn[nH]1` was tested. Which displacement did it give?
A: -0.7%

Q: `CCCS(=O)(=O)c1c(S(=O)(=O)CCC)c2cc(-c3ccncc3)ccn2c1C(=O)OC` was tested. Which displacement did it give?
A: -1.6%

Q: With `CCCCOCC(O)CSCCCC` (configuration not stated) as the compound, how does the displacement read?
A: 2.1%

Q: Which displacement does the source give for `O=C(NC(C(=O)N1CCCCC1)=C1CCCCC1)c1ccccc1` here?
A: -3.1%

Q: `CCOc1ccccc1NC(=O)c1c(NC(=S)Nc2ccccc2)sc2c1CCCCC2` was tested. Which displacement did it give?
A: -21%

Q: With `O=C1NN(c2ccccc2)C(=O)/C1=C/c1ccc(OCCOc2ccccc2)cc1` as the compound, how does the displacement read?
A: 15.6%

Q: How did the displacement turn out when `CC1=NN(c2nc(-c3ccc(Cl)c(Cl)c3)cs2)C(=O)C1C` (configuration not stated) was run?
A: -22.9%

Q: With `O=C1C(=O)N(C2CCCC2)C(=O)N1C1CCCCC1` as the compound, how does the displacement read?
A: 14.4%

Q: `COc1ccc(S(=O)(=O)N(CCc2ccccc2)CC(=O)NC2CCCCC2)cc1` was tested. Which displacement did it give?
A: 14.2%

Q: Which displacement does the source give for `Oc1ccc(-c2cn3c(n2)SCC3)cc1O` here?
A: 28.5%

Q: Which displacement does the source give for `Cc1ccccc1C(=O)NN1C(=O)/C(=C\c2ccco2)SC1=S` here?
A: 26%

Q: With `COc1ccc(/C=c2\sc3nc(-c4ccccc4)nn3c2=O)cc1` as the compound, how does the displacement read?
A: 77.5%

Q: Which displacement does the source give for `O=C1C2C3C=CC(C4CC34)C2C(=O)N1c1cccc(C(F)(F)F)c1` (configuration not stated) here?
A: -10.7%

Q: With `COc1ccc(-n2c(=O)c3c4c(sc3n3c(SC)nnc23)CCCC4)cc1` as the compound, how does the displacement read?
A: -0.7%

— PubChem BioAssay AID1240 (Sanford-Burnham Center for Chemical Genomics, 2008)
